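Exposure lasted 48 hours, with cells grown in 96-well plates and compounds tested at five concentrations. GI50: concentration for 50% inhibition of growth. TGI is the concentration that stops growth completely.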
Test system: NCI-H322M lung
Experiment: NCI anticancer screen, dose series, 48 h

| SMILES | TGI | GI50 |
| --- | --- | --- |
| CN(CCN)[C@H](CSSC[C@@H](c1ccccc1O)N(C)CCN)c1ccccc1O | 27.8 µM | – |
| O=C(/C=C/c1ccc(-c2ccccc2)cc1)NCc1ccc(C(=O)NCCc2ccccc2)cc1 | > 100 µM | – |
| Cc1ccc(C(=O)N/N=C(\N=Nc2ccc([N+](=O)[O-])cc2)c2ccc(N(CCC#N)CCC#N)cc2C)cc1 | > 100 µM | – |
| COc1ccc(/C=C/C(=O)c2c(-c3ccccc3)nn(C)c(=O)c2N2CC2C)cc1 (stereo not given) | > 100 µM | – |
| O=[N+]([O-])c1ccccc1N=Nc1c(O)[nH]c2c(Cl)cccc12 | > 100 µM | – |
| Cc1cc(N(CCC#N)CCC#N)ccc1/C=C(\NC(=O)/C=C/c1ccccc1)C(=O)Nc1ccccc1Cl | > 100 µM | – |
| CCCOC(=O)c1cc(O)c(O)c(O)c1 | > 100 µM | – |
| COc1cc2c(c(OC)c1OC)-c1cc(I)c(O)cc1[C@@H](NC(C)=O)CC2 | > 100 µM | 0.0413 µM |
| Cc1cc(C)c2nc3c(c(C(O)C4CCCCN4)c2c1)CC/C3=C\c1ccc(Cl)cc1 (stereo not given) | > 100 µM | – |
| COC(=O)c1c(C)nc(C)c2c1C(=O)C(Br)=C(NCc1ccccc1)C2=O | 10.9 µM | 3.45 µM |
| CCCN1C(=O)/C(=C/c2ccc(SC(F)(F)F)cc2)SC1=Nc1ccc(OC)cc1 | 21.9 µM | 5.73 µM |
| Cc1ccc(C)c2c1C1CCCCC3(OCCCO3)C21O (stereo not given) | > 100 µM | – |
| CSc1cc(Cl)c(C)cc1S(=O)(=O)NC(=O)NNc1ccc(C)cc1 | > 100 µM | – |
| C[N+](C)(CCNc1ccc(NCC[N+](C)(C)Cc2ccc([N+](=O)[O-])cc2)c2c1C(=O)c1c(O)ccc(O)c1C2=O)Cc1ccc([N+](=O)[O-])cc1 | > 50 µM | – |
| COc1cc(-c2nc(-c3ccccc3)c(-c3ccccc3)[nH]2)cc(OC)c1O | 63.1 µM | 25.1 µM |
| COc1cc(N=Nc2cc(Cc3ccc(N(C)C)cc3)c(N)cc2N(C)C)c2ncccc2c1 | 2.95 µM | 0.483 µM |
| CC(=O)Oc1ccc2cc(Oc3cc(Cl)c(Cl)cc3Cl)c(=O)oc2c1 | 55.3 µM | – |
| C[N+]1(C)CCCC(C#N)(c2ccccc2)CC1 (stereo not given) | > 100 µM | – |
| Nc1nc(Sc2ccc([N+](=O)[O-])c3nonc23)c2[nH]cnc2n1 | 21.2 µM | – |
| O=C(Nc1cccc(-n2ccc3c(NC(=O)c4ccccc4)ncnc32)c1)Nc1ccc(Cl)c(C(F)(F)F)c1 | 15.6 µM | 6.93 µM |
| O=C(O)CNc1ccc2c(c1)Cc1cc(Br)ccc1-2 | > 77.4 µM | – |
| O=C(/C=C/c1ccc(OCc2ccccc2)cc1)NCc1ccc(C(=O)NCCc2ccccc2)cc1 | > 100 µM | – |
| Cc1ccc(NCCNCC(C)(C)O)c2c(=O)c3ccc(Cl)cc3sc12 | 2.52 µM | 1.19 µM |
| O=[N+]([O-])c1cccc(/C=N/Nc2ccc3ccccc3n2)c1O | 29.1 µM | – |
| ClC1=NSSC1(Cl)Cl | > 100 µM | – |

| SMILES | TGI | GI50 |
| --- | --- | --- |
| CCc1ccc2c(c1)C(=O)c1c-2n(CCCN)c(=O)c2cc(OC)c(OC)cc12 | 3.06 µM | 1.56 µM |
| COC(=O)c1ccccc1C1CN=NC12Cc1ccc(C)cc1C2=O (stereo not given) | > 100 µM | – |
| CC1CC(=O)N(N(C)C)C2(C#N)C(=O)N=C(N)C12C#N (stereo not given) | > 100 µM | – |
| CN(C)C(=O)C(F)(F)C(c1ccccc1Br)C1C(=O)N(C)C(=O)N(C)C1=O (stereo not given) | > 100 µM | – |
| Cc1ccc(C2=CC(=O)/C(=C\C(=O)c3ccc(Br)cc3)O2)c(C)c1 | > 68.2 µM | – |
| COc1cc(/C=C(\C)[N+](=O)[O-])cc(OC)c1 | 31.6 µM | – |
| Cc1cc(NCCCCCCCNc2cc(C)nc3cc(N)ccc23)c2ccc(N)cc2n1 | > 100 µM | – |
| Cn1c(=O)c(-c2ccccc2Cl)cc2cnc(NC3CCOCC3)nc21 | > 25 µM | 12 µM |
| CNC(=S)N/N=C/C(C)=N/NC(=S)NC | > 100 µM | – |
| O=C(NNC(=O)c1ccco1)c1ccco1 | > 100 µM | – |
| CCn1c(-c2nonc2N)nc2ccccc21 | > 25 µM | > 25 µM |
| C[N+](C)(C)CC1CCC(C[N+](C)(C)C)C1=NO (stereo not given) | > 100 µM | – |
| NC(CCC(=O)c1ccccn1)C(=O)O (stereo not given) | > 100 µM | – |
| N[C@@H]1CCCN(c2c(Br)cnc3[nH]cc(NC(=O)C4CC4)c23)C1 | > 100 µM | 0.324 µM |
| Clc1ccc(C=Nc2ccc(-c3nc4ccccc4[nH]3)cc2)cc1 | > 100 µM | > 100 µM |
| O=P(CN1CCOCC1)(c1ccccc1)c1ccccc1 | > 100 µM | – |
| Cn1cc(-c2cc(-c3cn(C)c4ccccc34)[nH]n2)c2ccccc21 | > 100 µM | > 100 µM |
| CN1C2C=CC(=O)C1C1C(=O)N(c3ccccc3)C(=O)C12 (stereo not given) | 29.3 µM | 13.8 µM |
| CN(C)C(=O)C(F)(F)C(c1ccccc1)C1C(=O)N(C)C(=O)N(C)C1=O (stereo not given) | > 100 µM | – |
| CC(C)c1cc(=O)[nH]c2cc(N)ccc12 | > 100 µM | – |
| C=CCOCC1C2CCC3(OCCO3)C21 (stereo not given) | > 100 µM | – |
| Clc1ccc(-c2cn3c(nc4ccccc43)c(-c3ccccc3)n2)cc1 | > 80.4 µM | – |
| COc1cc2ncn(-c3cc(OCc4ccccc4C(F)(F)F)c(C(N)=O)s3)c2cc1OC | > 25 µM | 4.12 µM |
| CCn1cc(C(=O)O)c(=O)c2cc(F)c(N3CCN(S(=O)(=O)c4ccc(Cl)cc4Cl)CC3)cc21 | 8.27 µM | 2.86 µM |

Source: PubChem BioAssay (NCI)
